Read counts are not given, so values of variants with three or more changes are uncertain.
B1: LINE1-full (parent)
chain: UACGUAGGUGGUUUUCCCCUGAUAGUGCUAAGGGGGCCUGGAAGUUUGGACUGGGCAGAGCUCAACACAGCGUGGCAAAGUGGCUGUGGCUAGACUGCCUCUCUGGAUUCCUCGUCACUCAGCAGGGCAUCUCUGAGAGAAAUGCC

Variants of: B1
Experiment: self-cleavage, relative activity (ratio to wild type); higher = more cleavage; in vitro, sequencing; the parent is a self-cleaving ribozyme

Variant | self-cleavage
UACGUAGGUGGUUUUCCCCUGAUAGUGCUAAGGGGGCCUGGAAGUUUGGACUGGGCAGAGCUCAACACAGCGCGGCAAGGUGGCUGUGGCUAGACUGCCUCUCUGGAUUCCUCGUCACUCAGCAGGGCAUUUCUGAGAGAAAUGCC [U73C A79G C131U] | 1.99
UACGUAGGUGGUUUUCCCCUGAUAGUGCUAAGGGGGCCUGGAAGUUUGGACUGGGCAGAGCUCAACACAGCGCGGCGAAGUGGCUGUGUCUAGACUGCCACUCUGGAUUCCUCGUCACUCAGCAGGGCAUCUCUGAGAGAAAUGCC [U73C A77G G89U U100A] | 0.03
UACGUAGGUGGUUUUCCCCUGAUAGUGCUAAGGGGGCCUGGAAGUUUGGACUGGGCAGAGCUCAACACAGCGAGGCAAAGUGGCUGUGGCUAGACUGCCACUCUGGAUUCCUCGCCACUCAGCAGGGCAUCUCUGAGAGAAGUGCC [U73A U100A U115C A142G] | 0.85
UACGUAGGUGGUUUUCCCCUGAUAGUGCUAAGGGGGCCUGGAAGUUUGGACUGGGCAGAGCUCAACACAGCGCGGCAGAGUGGCAGUGGCUAGACUGCCUCUCUGGGUUCCUCGUCACUCAGCAGGGCAUCUCUGAGUGAAAUGCC [U73C A78G U85A A107G A138U] | 0
UACGUAGGUGGUUUUCCCCUGAUAGUGCUAAGGGGGCCUGGAAGUUUGGACUGGGCAGAGCUCAACACAGCGCGGCAAAGUGGCUGUGGCUAGACUGCCUCUCUGGAUUCCUCGUCACUCAGCAGUGCAUCCCUGAGAGAAAUGCC [U73C G126U U132C] | 1.26
UACGUAGGUGGUUUUCCCCUGAUAGUGCUAAGGGGGCCUGGAAGUUUGGACUGGGCAGAGCUCAACACAGCGCGGCAAAGUGGCUGUGACUAGACCGCCUCUCUGGAUUCCUCGUCACUCAGCAGGGCAUCUCUGAGAGAAAUGCC [U73C G89A U96C] | 0.08
UACGUAGGUGGUUUUCCCCUGAUAGUGCUAAGGGGGCCUGGAAGUUUGGACUGGGCAGAGCUCAACACAGCGAGGCAAAGUGGCUGUGGCUAGACUGCCUCUCUGGAUUCCUCGACACUCAGCAGGGCAUCUCUGGGAGAAAUGCC [U73A U115A A136G] | 1.55
UACGUAGGUGGUUUUCCCCUGAUAGUGCUAAGGGGGCCUGGAAGUUUGGACUGGGCAGAGCUCAACACAGCGAGGCAAAGUGGCUGUGGCUAGACUGCCUCUCUGGAUCCCUCGUCACUCGGCAGGGCAUCUCUGAGAGAAAUGCC [U73A U109C A121G] | 1.88
UACGUAGGUGGUUUUCCCCUGAUAGUGCUAAGGGGGCCUGGAAGUUUGGACUGGGCAGAGCUCAACACAGCGAGGCAAAGUGGCUGUGGCUAGACUGCCGCUCUGGAUUCCUCGUCACUCAGCAGGGCAUCUCUGCGAGAAAUGCC [U73A U100G A136C] | 1.31
UACGUAGGUGGUUUUCCCCUGAUAGUGCUAAGGGGGCCUGGAAGUUUGGACUGGGCAGAGCUCAACACAGCGAGGCAAAGUGGCUGUGGCUAGACUGCCUCCCUGGAUUCCUCGUCAUUCGGCAGGUCAUCUCUGAGAGAAAUGCC [U73A U102C C118U A121G G127U] | 1.86
UACGUAGGUGGUUUUCCCCUGAUAGUGCUAAGGGGGCCUGGAAGUUUGGACUGGGCAGAGCUCAACACAGCGCGGCAAAGUGGCUGUGGCUAGACUGCCUCUCUGGAUUCCUCGUCACUCAGCAGGGCGUCUCAGAGAGAAAUGCC [U73C A129G U134A] | 0.66
UACGUAGGUGGUUUUCCCCUGAUAGUGCUAAGGGGGCCUGGAAGUUUGGACUGGGCAGAGCUCAACACAGCGCGGCAAAGUGGCUGUGGCUAGACUGCCUCUCUGGAUUCCUCGUCACUCGGCAGAGCAUCUCUGAGAGAAGUGCC [U73C A121G G126A A142G] | 1.45
UACGUAGGUGGUUUUCCCCUGAUAGUGCUAAGGGGGCCUGGAAGUUUGGACUGGGCAGAGCUCAACACAGCGAGGCAAAGUGGCUGUGGCUAGACUGCCUCUCUGGAUACCUCGUCACUCAGCAGGGCAUCUCUGAGGGAAACGCC [U73A U109A A138G U143C] | 1.72
UACGUAGGUGGUUUUCCCCUGAUAGUGCUAAGGGGGCCUGGAAGUUUGGACUGGGCAGAGCUCAACACAGCGCGGCAAAGUGGCUGUGGCUAGACUGCCUUUCUGGAUUCCUCGUCACUCAGCAGGGCAUCUCUGAGAGAAGUGCC [U73C C101U A142G] | 1.65
UACGUAGGUGGUUUUCCCCUGAUAGUGCUAAGGGGGCCUGGAAGUUUGGACUGGGCAGAGCUCAACACAGCGCGGCAAAGUUGCUGUGGCUAGACUGCCUCUCUGGGUUCCUCGUCACUCAGCAGGGCAUCUCUGAGAGAAAUGCC [U73C G82U A107G] | 0
UACGUAGGUGGUUUUCCCCUGAUAGUGCUAAGGGGGCCUGGAAGUUUGGACUGGGCAGAGCUCAACACAGCGAGGCAAAGUGGCUGUGGCUAGACUGCCCCUCUGGAUUCCUUGUCACUCAGCAGGGCAUCUCUGAGAGAAAUGCC [U73A U100C C113U] | 2.14
UACGUAGGUGGUUUUCCCCUGAUAGUGCUAAGGGGGCCUGGAAGUUUGGACUGGGCAGAGCUCAACACAGCGCGGCAAAGUGGCUGUGGCUAGACUGCUUCUCUGGAUUCCUCGUCACUCAGCGGGGCAUCUCUGAGAGAAAUGCC [U73C C99U A124G] | 0.9
UACGUAGGUGGUUUUCCCCUGAUAGUGCUAAGGGGGCCUGGAAGUUUGGACUGGGCAGAGCUCAACACAGCGCGGCAAAGUGGCUGUGGCUAGACUGCCUCUCUGGAUUCCUCGUCACUCAGCAGGGCAUCUCUGAGAGAGACGCC [U73C A141G U143C] | 2.76
UACGUAGGUGGUUUUCCCCUGAUAGUGCUAAGGGGGCCUGGAAGUUUGGACUGGGCAGAGCUCAACACAGCGAGGCAAAGUGGCUGUGGCUAGACUGCCUCUCAGGAUUCCUCGUCACUCAGCAGGGCAUCUCUGUGAGAAAUGCC [U73A U104A A136U] | 1.81
UACGUAGGUGGUUUUCCCCUGAUAGUGCUAAGGGGGCCUGGAAGUUUGGACUGGGCAGAGCUCAACACAGCGCGGCAAAGUGGCUGUGGCUAGACUGCCUCUCUGGAUUCAUCGUCACUCAGCAGGGCACCUCUGAGAGAAAUGCC [U73C C111A U130C] | 1.43
